Measurements as given in publication PMC6073470 (International Journal of Molecular Sciences, 2018).

What was measured:
[1] = target: the molecule itself; assay: SEC; as a1, but at low quantities of protein loaded on the column (low concentration), where a smaller species appears
[2] = target: the molecule itself; assay: SEC; Superdex 200 HR 10/30; 20 mM Tris/acetate pH 7.6, 150 mM NaCl, 0.1 mM EDTA, 0.1 mM PMSF, 15 mM beta-mercaptoethanol; 10-120 ug protein in 100 uL loaded; apparent mass from calibration, estimated number of subunits

B1: R27A mutant of human HspB1 (natural protein)
chain: not shown
notes: HspB1, human; […]; Arg27 of the RLFDQxFG motif replaced by Ala; Expressed from pET23b; also called R27A HspB1; source: E. coli BL21(DE3)pLysS, purified (ammonium sulfate fractionation, HiTrap Q HP, Superdex-200 SEC)
[1]
  stoichiometry N: ~4 monomers
[2]
  stoichiometry N: ~22 monomers
